Source: the supplement of paper PMC10338343
± gives the standard deviation. Only a part is listed here, and it is no random draw.

test system: MIWI (PIWIL1) piRISC loaded with L1MC piRNA (30 nt); assay: pre-steady-state target cleavage rate (min^-1); MIWI and MILI are mouse PIWI proteins and EfPiwi is from a freshwater sponge; tags in brackets are library labels; higher = faster piRNA-guided slicing of the target; conditions: guide: L1MC piRNA 5'p-UAACUAAAUACUAUGCAAGCUGUAGGUCCU; auxiliary factor: none (no GTSF1)
Method in brief: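 The pre-steady-state cleavage rate was obtained by Cleave-'n-Seq with a burst-and-steady-state fit. A transcribed, DNA-blocked target RNA library (0.1 nM) was mixed with 1 nM active affinity-purified piRISC carrying one synthetic guide, with or without 500 nM GTSF1 partner protein, in HEPES–potassium acetate buffer at 33 °C for 0–8 or 0–960 min. Uncleaved targets were sequenced and normalised to depth and to weakly complementary targets, with three trials pooled and k3 capped at 0.0001 min^-1.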

Which “pre-steady-state target cleavage rate” value does the source give for UCCUGCUACUGGUUGCAUAGUAUUUAGUUA here?
Its value is 0.0243 ± 0.0045.

UCCUGGAACAGCUCGCAUAGUAUUUAGUUA was tested. Which “pre-steady-state target cleavage rate” value did it give?
The value was 0.0615 ± 0.015.

With UCGACCUACACCUUGCAUAGUUUUUAGUUA as the sequence, how does the “pre-steady-state target cleavage rate” value read?
The value was 0.0191 ± 0.0038.

With UCCUGCUACAGCUUGCAUAGUAUUUAGAAA as the sequence, how does the “pre-steady-state target cleavage rate” value read?
Its value is 0.00361 ± 0.0026.

UGGACCUUCAGCUUGCAUAGUAUUUAGAUA was tested. Which “pre-steady-state target cleavage rate” value did it give?
The value was 0.0254 ± 0.0066.

Which “pre-steady-state target cleavage rate” value does the source give for UCCUCCUAGAGCUUGCAUAGUAUUUAGAAA here?
The value was 0.00351 ± 0.0022.

Which “pre-steady-state target cleavage rate” value does the source give for AGGACCUACAGCUUGCAUAGUAUAAUGUAA here?
The value was 0.00382 ± 0.0035.

How did the “pre-steady-state target cleavage rate” value turn out when UCCACGUACAGCUUGCAUUGUAUUUAGUUA was run?
Its value is 0.0299 ± 0.0072.

UCCUGCUUCAGCUUGCAUAGAAUUUAGUUA was tested. Which “pre-steady-state target cleavage rate” value did it give?
The value was 0.0227 ± 0.006.

With UGGACGUACAGCUUGCAUACUAUUUAGUUA as the sequence, how does the “pre-steady-state target cleavage rate” value read?
Its value is 0.0302 ± 0.0064.

With UCCUGCUACACUUGCAUAGUAUUUAGUUA as the sequence, how does the “pre-steady-state target cleavage rate” value read?
Its value is 0.0281 ± 0.0054.

AGGACCUACAGCUUGCAAAGUUUUUAGUUA was tested. Which “pre-steady-state target cleavage rate” value did it give?
The value was 0.0192 ± 0.0049.

Which “pre-steady-state target cleavage rate” value does the source give for UCCUGCUACAGCUAGGAUAGUAUUUAGUUA here?
Its value is 0.006 ± 0.0018.

Which “pre-steady-state target cleavage rate” value does the source give for UCCUGGAUGUCCUUUGCAUAGUAUUUAGUUA here?
Its value is 0.0069 ± 0.0023.

With UGGACCAACAGCUUGCAUAGUAUUUACAAA as the sequence, how does the “pre-steady-state target cleavage rate” value read?
Its value is 0.00615 ± 0.0021.

How did the “pre-steady-state target cleavage rate” value turn out when UCCAGCUACAGCUUGCAUAGUAUUAAGUUA was run?
The value was 0.015 ± 0.0026.

With UCCUCCUAGUGCUUGCAUAGUAUUUAGAAA as the sequence, how does the “pre-steady-state target cleavage rate” value read?
Its value is 0.00228 ± 0.002.

UCCACCUACAGCUUCGCAUAGUAUUUAGUUA was tested. Which “pre-steady-state target cleavage rate” value did it give?
Its value is 0.0118 ± 0.0027.

For UCCACCUACAGCAUGCAUAGUAUUUAGUUA, which “pre-steady-state target cleavage rate” value is on record?
The value was 0.0309 ± 0.0079.

How did the “pre-steady-state target cleavage rate” value turn out when UCCUGGAUGUCGAACGUAUCUUUUAGUUA was run?
The value was < 0.0001.

With UCCUGGAUGUGCUUGCAUAGUAUGUAGUUA as the sequence, how does the “pre-steady-state target cleavage rate” value read?
Its value is 0.027 ± 0.0064.

For UCGACCAACAGCUUGCAUAGUAUUUAGAAA, which “pre-steady-state target cleavage rate” value is on record?
Its value is 0.0115 ± 0.0038.

Which “pre-steady-state target cleavage rate” value does the source give for UGGUCCUACAGCUUGCAUAGUAUUUAGAUA here?
The value was 0.0331 ± 0.0058.

With UCCUGCUACACCUUGCAAAGUAUUUAGUUA as the sequence, how does the “pre-steady-state target cleavage rate” value read?
The value was 0.0318 ± 0.006.

Which “pre-steady-state target cleavage rate” value does the source give for UCCUGGAACAGCUUGUCAUAGUAUUUAGUUA here?
The value was 0.00586 ± 0.0033.

How did the “pre-steady-state target cleavage rate” value turn out when UCCUGCUACAGCUUGGUUAGUAUUUAGUUA was run?
Its value is 0.00818 ± 0.0024.

Which “pre-steady-state target cleavage rate” value does the source give for UCCUGGUACAGCUUGGAUAGUAUUUAGUAA here?
Its value is 0.0149 ± 0.0041.

Which “pre-steady-state target cleavage rate” value does the source give for UCCUGGAAGAGCUUGCAUAGUAUUUAGUUA here?
The value was 0.0433 ± 0.0086.

With UCCUCCUUCAGCUUCCAUAGUAUUUAGUUA as the sequence, how does the “pre-steady-state target cleavage rate” value read?
The value was 0.00274 ± 0.0017.

Which “pre-steady-state target cleavage rate” value does the source give for UGCACCUACAGCUUGCAUAGUAUUUAGAUA here?
Its value is 0.0446 ± 0.013.

UCCACCAUGAGCUUGCAUAGUAUUUAGAAA was tested. Which “pre-steady-state target cleavage rate” value did it give?
The value was 0.00532 ± 0.0017.

UCCUGCUACAGCUUGCAAAGUAAUUAGUUA was tested. Which “pre-steady-state target cleavage rate” value did it give?
Its value is 0.00918 ± 0.0032.

How did the “pre-steady-state target cleavage rate” value turn out when UCCUGGUACAGCUUGCAUAGUUAUUUAGUUA was run?
Its value is 0.00505 ± 0.0031.

How did the “pre-steady-state target cleavage rate” value turn out when AGGACCUACAGGUUGCAUAGUAAUUAGUUA was run?
Its value is 0.0209 ± 0.0048.

For UCCUGGAUCAGCAUGCAUUGUAUUUAGUUA, which “pre-steady-state target cleavage rate” value is on record?
Its value is 0.00772 ± 0.0032.

For UCCUGGAACUGCUUGCAUAGUAUAUAGUUA, which “pre-steady-state target cleavage rate” value is on record?
Its value is 0.0165 ± 0.0056.

UGGACCUACAGCUUGCAUACUAUUUACAAA was tested. Which “pre-steady-state target cleavage rate” value did it give?
Its value is 0.00312 ± 0.0024.

UCCUGGAUGUGCUUGCAUAGUAUUAAGUUA was tested. Which “pre-steady-state target cleavage rate” value did it give?
The value was 0.0164 ± 0.0047.

With UGGACCUACAGCUUCCAUAGUAUUUAGUAA as the sequence, how does the “pre-steady-state target cleavage rate” value read?
The value was 0.00204 ± 0.002.

UGGACCACAGCUUGCAUAGUAUUUAGUUA was tested. Which “pre-steady-state target cleavage rate” value did it give?
Its value is 0.0744 ± 0.015.
